{
  "sequences": {"note": "Chains of the proteins cited; added tags and fusions are not shown. Lines headed by an entry give the natural chain unless they say otherwise; changes in a name come on top.", "UniProt Q9FDW1": "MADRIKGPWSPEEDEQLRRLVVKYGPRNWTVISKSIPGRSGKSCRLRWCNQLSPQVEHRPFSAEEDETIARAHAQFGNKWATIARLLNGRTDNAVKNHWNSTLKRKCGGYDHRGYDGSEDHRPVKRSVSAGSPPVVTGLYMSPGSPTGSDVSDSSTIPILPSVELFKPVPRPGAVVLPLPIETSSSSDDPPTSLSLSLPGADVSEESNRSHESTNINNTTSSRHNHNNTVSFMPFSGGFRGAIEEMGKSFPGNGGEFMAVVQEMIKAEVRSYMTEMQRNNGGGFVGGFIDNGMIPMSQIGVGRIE", "UniProt Q39025": "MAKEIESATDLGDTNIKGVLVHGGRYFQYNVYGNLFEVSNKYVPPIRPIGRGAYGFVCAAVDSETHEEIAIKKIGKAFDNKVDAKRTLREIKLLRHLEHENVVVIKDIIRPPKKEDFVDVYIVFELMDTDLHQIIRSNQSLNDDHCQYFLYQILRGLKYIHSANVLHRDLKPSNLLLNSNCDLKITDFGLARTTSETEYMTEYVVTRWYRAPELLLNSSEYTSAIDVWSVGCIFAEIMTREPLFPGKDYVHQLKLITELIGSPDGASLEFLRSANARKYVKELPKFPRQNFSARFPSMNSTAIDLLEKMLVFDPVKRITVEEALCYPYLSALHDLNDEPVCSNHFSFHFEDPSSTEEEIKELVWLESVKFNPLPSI", "UniProt Q9SN12": "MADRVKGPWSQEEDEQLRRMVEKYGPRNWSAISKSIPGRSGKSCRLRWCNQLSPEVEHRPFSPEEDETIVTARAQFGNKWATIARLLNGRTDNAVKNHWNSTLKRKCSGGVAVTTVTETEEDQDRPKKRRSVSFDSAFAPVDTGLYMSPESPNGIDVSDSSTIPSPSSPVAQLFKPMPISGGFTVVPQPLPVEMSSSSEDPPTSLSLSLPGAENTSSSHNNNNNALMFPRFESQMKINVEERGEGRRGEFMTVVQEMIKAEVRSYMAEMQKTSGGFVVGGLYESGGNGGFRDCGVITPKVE", "UniProt Q39026": "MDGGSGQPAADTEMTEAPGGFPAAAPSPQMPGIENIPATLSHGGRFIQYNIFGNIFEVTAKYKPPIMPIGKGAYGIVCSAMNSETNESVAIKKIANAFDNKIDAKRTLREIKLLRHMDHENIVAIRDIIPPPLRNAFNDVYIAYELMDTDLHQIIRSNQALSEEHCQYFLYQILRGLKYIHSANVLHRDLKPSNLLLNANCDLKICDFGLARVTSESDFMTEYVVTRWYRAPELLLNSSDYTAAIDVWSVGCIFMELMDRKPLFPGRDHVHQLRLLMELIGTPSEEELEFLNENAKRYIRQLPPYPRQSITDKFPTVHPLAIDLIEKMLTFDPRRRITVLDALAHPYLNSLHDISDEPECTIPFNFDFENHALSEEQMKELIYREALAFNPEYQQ"},
  "source": "paper PMC3578790",
  "about": "“Tight Interconnection and Multi-Level Control of Arabidopsis MYB44 in MAPK Cascade Signalling”",
  "key": {"[1]": {"target": "MYB44 (BiFC fusions MYB44-YN and MYB44-YC) (Arabidopsis thaliana) (UniProt Q9FDW1)", "test": "split reporter; BiFC with YN/YC halves of YFP, tobacco leaves infiltrated with Agrobacteria (GV3101, pGreen constructs), fluorescence microscopy 4-7 days after infiltration"}, "[2]": {"target": "MYB44 (BiFC fusions MYB44-YN and MYB44-YC) (Arabidopsis thaliana) (UniProt Q9FDW1)", "test": "split reporter; BiFC with YN/YC halves of YFP, Arabidopsis mesophyll protoplasts, PEG-mediated transformation, fluorescence microscopy 12-16 h after transformation"}, "[3]": {"target": "MYB44 S145D (BiFC fusions S145D-YN and S145D-YC) (Arabidopsis thaliana) (UniProt Q9FDW1)", "test": "split reporter; BiFC with YN/YC halves of YFP, tobacco leaves infiltrated with Agrobacteria (GV3101, pGreen constructs), fluorescence microscopy 4-7 days after infiltration"}, "BD-MKK4 (Arabidopsis)": {"target": "T1, BD-MKK4 (Arabidopsis) (UniProt O80397)", "T1 sequence": "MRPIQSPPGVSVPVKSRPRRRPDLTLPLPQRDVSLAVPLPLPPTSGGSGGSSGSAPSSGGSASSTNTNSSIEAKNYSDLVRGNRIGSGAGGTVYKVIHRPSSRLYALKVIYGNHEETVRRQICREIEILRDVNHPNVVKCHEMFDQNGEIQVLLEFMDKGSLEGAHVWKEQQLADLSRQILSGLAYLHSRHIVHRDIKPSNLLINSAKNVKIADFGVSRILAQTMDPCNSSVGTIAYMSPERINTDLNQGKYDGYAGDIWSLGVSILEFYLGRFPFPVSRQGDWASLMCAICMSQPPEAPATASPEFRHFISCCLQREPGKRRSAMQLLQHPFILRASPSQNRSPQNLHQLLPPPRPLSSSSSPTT", "test": "two-hybrid; targeted test: pGAD (activation domain) and pBTM (binding domain) fusions in S. cerevisiae L40, selection on -Leu/-Trp, liquid beta-galactosidase activity assay; MKK autoactivity subtracted"}, "[4]": {"target": "MYB44 S145A (BiFC fusions S145A-YN and S145A-YC) (Arabidopsis thaliana) (UniProt Q9FDW1)", "test": "split reporter; BiFC with YN/YC halves of YFP, tobacco leaves infiltrated with Agrobacteria (GV3101, pGreen constructs), fluorescence microscopy 4-7 days after infiltration"}, "[5]": {"target": "MYB44 (yeast two-hybrid fusions AD-MYB44 and BD-MYB44) (Arabidopsis) (UniProt Q9FDW1)", "test": "two-hybrid; targeted test: pGAD (activation domain) and pBTM (binding domain) fusions in S. cerevisiae L40, selection on -Leu/-Trp, liquid beta-galactosidase activity assay; MKK autoactivity subtracted"}, "BD-MKK5 (Arabidopsis)": {"target": "T2, BD-MKK5 (Arabidopsis) (UniProt Q8RXG3)", "T2 sequence": "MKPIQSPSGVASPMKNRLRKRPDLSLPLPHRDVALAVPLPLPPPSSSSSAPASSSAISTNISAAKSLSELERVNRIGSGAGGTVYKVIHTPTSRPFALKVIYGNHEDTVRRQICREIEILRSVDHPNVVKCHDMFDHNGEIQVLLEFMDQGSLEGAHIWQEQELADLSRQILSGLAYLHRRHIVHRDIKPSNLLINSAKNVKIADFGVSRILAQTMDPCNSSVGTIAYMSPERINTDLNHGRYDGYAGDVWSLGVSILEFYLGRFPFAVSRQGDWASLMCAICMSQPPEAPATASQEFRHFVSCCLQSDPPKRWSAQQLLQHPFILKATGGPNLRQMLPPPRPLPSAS", "test": "two-hybrid; targeted test: pGAD (activation domain) and pBTM (binding domain) fusions in S. cerevisiae L40, selection on -Leu/-Trp, liquid beta-galactosidase activity assay; MKK autoactivity subtracted"}, "[6]": {"target": "T3, MKK4 (BiFC fusion MKK4-YN) (Arabidopsis) (UniProt O80397)", "T3 sequence": "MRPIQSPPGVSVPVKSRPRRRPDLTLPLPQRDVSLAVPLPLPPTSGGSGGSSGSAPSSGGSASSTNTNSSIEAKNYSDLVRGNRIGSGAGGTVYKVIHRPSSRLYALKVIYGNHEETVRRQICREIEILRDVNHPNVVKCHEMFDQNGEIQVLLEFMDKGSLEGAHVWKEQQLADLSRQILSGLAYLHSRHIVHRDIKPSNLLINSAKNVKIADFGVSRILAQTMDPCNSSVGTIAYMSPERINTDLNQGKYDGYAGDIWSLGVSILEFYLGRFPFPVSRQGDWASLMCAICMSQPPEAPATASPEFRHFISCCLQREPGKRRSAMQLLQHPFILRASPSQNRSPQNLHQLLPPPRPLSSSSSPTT", "test": "split reporter; BiFC with YN/YC halves of YFP, tobacco leaves infiltrated with Agrobacteria (GV3101, pGreen constructs), fluorescence microscopy 4-7 days after infiltration"}, "[7]": {"target": "T3, MKK4 (BiFC fusion MKK4-YN) (Arabidopsis)", "test": "split reporter; BiFC with YN/YC halves of YFP, Arabidopsis mesophyll protoplasts, PEG-mediated transformation, fluorescence microscopy 12-16 h after transformation"}, "[8]": {"target": "T3, MKK4 (BiFC fusion MKK4-YN) (Arabidopsis)", "test": "split reporter; BiFC with YN/YC halves of YFP, tobacco leaves infiltrated with Agrobacteria (GV3101, pGreen constructs), fluorescence microscopy 4-7 days after infiltration", "remark": "listed apart in the source"}, "[9]": {"target": "MYB44 (BiFC fusions MYB44-YN and MYB44-YC) (Arabidopsis thaliana) (UniProt Q9FDW1)", "test": "split reporter; BiFC with YN/YC halves of YFP, Arabidopsis mesophyll protoplasts, PEG-mediated transformation, fluorescence microscopy 12-16 h after transformation", "remark": "listed apart in the source"}, "[10]": {"target": "MYB44 (BiFC fusions MYB44-YN and MYB44-YC) (Arabidopsis thaliana) (UniProt Q9FDW1)", "test": "split reporter; BiFC with YN/YC halves of YFP, tobacco leaves infiltrated with Agrobacteria (GV3101, pGreen constructs), fluorescence microscopy 4-7 days after infiltration", "remark": "listed apart in the source"}},
  "note": "No constants are given. Whether binding was seen depends on the method and setting. For some of these results: In cells and extracts the contact can be indirect. Some binding calls cover weakened binding; strength is not graded here. For some of these results: Tags and fused reporters may be left off the sequences shown.",
  "data": [
    {"molecule": "MPK5-YC (from UniProt Q39025 1-376)", "values": [
      {"measurement": "binding", "setting": "[1]", "value": "no binding"},
      {"measurement": "binding", "setting": "[2]", "value": "no binding"}
    ]},
    {"molecule": "MYB77 (BiFC fusion) (from UniProt Q9SN12 1-301)", "values": [
      {"measurement": "binding", "setting": "[2]", "value": "binds"}
    ]},
    {"molecule": "MYB44 S145D (BiFC fusions S145D-YN and S145D-YC) (from UniProt Q9FDW1 1-305)", "values": [
      {"measurement": "binding", "setting": "[3]", "value": "binds"}
    ]},
    {"molecule": "MPK6 (yeast two-hybrid fusion) (from UniProt Q39026 1-395)", "values": [
      {"measurement": "binding", "setting": "BD-MKK4 (Arabidopsis)", "value": "binds"}
    ]},
    {"molecule": "MYB44 S145A (BiFC fusions S145A-YN and S145A-YC) (from UniProt Q9FDW1 1-305)", "values": [
      {"measurement": "binding", "setting": "[4]", "value": "binds"}
    ]},
    {"molecule": "MYB44 (yeast two-hybrid fusions AD-MYB44 and BD-MYB44) (from UniProt Q9FDW1 1-305)", "values": [
      {"measurement": "binding", "setting": "BD-MKK4 (Arabidopsis)", "value": "binds"},
      {"measurement": "binding", "setting": "[5]", "value": "binds"},
      {"measurement": "binding", "setting": "BD-MKK5 (Arabidopsis)", "value": "binds weakly"}
    ]},
    {"molecule": "MYB44 (BiFC fusions MYB44-YN and MYB44-YC) (from UniProt Q9FDW1 1-305)", "values": [
      {"measurement": "binding", "setting": "[1]", "value": "binds"},
      {"measurement": "binding", "setting": "[2]", "value": "binds"}
    ]},
    {"molecule": "MPK6 (BiFC fusion) (from UniProt Q39026 1-395)", "values": [
      {"measurement": "binding", "setting": "[6]", "value": "binds"}
    ]},
    {"molecule": "MPK3 (BiFC fusions MPK3-YC and MPK3-YN) (protein, UniProt Q39023 1-370) MNTGGGQYTDFPAVETHGGQFISYDIFGSLFEITSKYRPPIIPIGRGAYGIVCSVLDTETNELVAMKKIANAFDNHMDAKRTLREIKLLRHLDHENIIAIRDVVPPPLRRQFSDVYISTELMDTDLHQIIRSNQSLSEEHCQYFLYQLLRGLKYIHSANIIHRDLKPSNLLLNANCDLKICDFGLARPTSENDFMTEYVVTRWYRAPELLLNSSDYTAAIDVWSVGCIFMELMNRKPLFPGKDHVHQMRLLTELLGTPTESDLGFTHNEDAKRYIRQLPNFPRQPLAKLFSHVNPMAIDLVDRMLTFDPNRRITVEQALNHQYLAKLHDPNDEPICQKPFSFEFEQQPLDEEQIKEMIYQEAIALNPTYG", "values": [
      {"measurement": "binding", "setting": "[7]", "value": "binds"},
      {"measurement": "binding", "setting": "[8]", "value": "binds"}
    ]},
    {"molecule": "MKK4 (BiFC fusion MKK4-YN) (protein, UniProt O80397 1-366) MRPIQSPPGVSVPVKSRPRRRPDLTLPLPQRDVSLAVPLPLPPTSGGSGGSSGSAPSSGGSASSTNTNSSIEAKNYSDLVRGNRIGSGAGGTVYKVIHRPSSRLYALKVIYGNHEETVRRQICREIEILRDVNHPNVVKCHEMFDQNGEIQVLLEFMDKGSLEGAHVWKEQQLADLSRQILSGLAYLHSRHIVHRDIKPSNLLINSAKNVKIADFGVSRILAQTMDPCNSSVGTIAYMSPERINTDLNQGKYDGYAGDIWSLGVSILEFYLGRFPFPVSRQGDWASLMCAICMSQPPEAPATASPEFRHFISCCLQREPGKRRSAMQLLQHPFILRASPSQNRSPQNLHQLLPPPRPLSSSSSPTT", "values": [
      {"measurement": "binding", "setting": "[9]", "value": "binds"},
      {"measurement": "binding", "setting": "[10]", "value": "binds"}
    ]}
  ]
}
